These are yes or no findings as the source states them, for the method shown. Binding seen in cells or lysates may run through a third protein. Some binding calls cover weakened binding; strength is not graded here. Sequences can lack the tags named with a protein.
Assays:
[1] = target: T1, Praf2^HA (HEK 293T) (human) (UniProt O60831); experiment: co-IP; HEK 293T cells co-transfected, lysed after 24 h in CHAPS extraction buffer (50 mM Tris/HCl pH 8.0, 150 mM NaCl, 1% CHAPS); anti-HA agarose 2 h at 4°C; immunoblot with anti-HA and anti-FLAG
T1 sequence: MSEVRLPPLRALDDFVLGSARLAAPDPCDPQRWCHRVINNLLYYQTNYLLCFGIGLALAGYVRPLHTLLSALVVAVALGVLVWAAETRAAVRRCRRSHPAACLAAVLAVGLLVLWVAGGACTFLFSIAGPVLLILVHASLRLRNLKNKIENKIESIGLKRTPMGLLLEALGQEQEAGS

By UniProt entry, the sequences of proteins in these tests, tags left out. Where a name states a change or a piece, a line headed by the entry shows the natural chain unless it says otherwise. Chains listed by the source or under a name are the forms on record and can include a tag or linker. Residues count along the entry.
Bcl-xLΔTM (FLAG-tagged) (Q07817, residues 1-211): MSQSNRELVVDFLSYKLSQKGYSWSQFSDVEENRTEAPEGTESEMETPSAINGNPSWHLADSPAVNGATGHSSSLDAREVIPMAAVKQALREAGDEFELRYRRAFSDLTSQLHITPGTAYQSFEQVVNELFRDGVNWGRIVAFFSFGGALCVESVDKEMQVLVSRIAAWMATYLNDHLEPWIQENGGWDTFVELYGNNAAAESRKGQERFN
Bcl-xLΔBH4 (FLAG-tagged) (Q07817, residues 25-233): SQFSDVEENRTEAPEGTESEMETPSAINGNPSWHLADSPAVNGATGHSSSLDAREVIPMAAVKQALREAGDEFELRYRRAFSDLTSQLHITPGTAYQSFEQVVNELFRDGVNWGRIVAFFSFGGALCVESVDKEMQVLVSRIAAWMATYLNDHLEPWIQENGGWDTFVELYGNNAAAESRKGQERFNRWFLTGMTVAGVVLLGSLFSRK
Bcl-xLY101K (FLAG-tagged) (Q07817-1, form named): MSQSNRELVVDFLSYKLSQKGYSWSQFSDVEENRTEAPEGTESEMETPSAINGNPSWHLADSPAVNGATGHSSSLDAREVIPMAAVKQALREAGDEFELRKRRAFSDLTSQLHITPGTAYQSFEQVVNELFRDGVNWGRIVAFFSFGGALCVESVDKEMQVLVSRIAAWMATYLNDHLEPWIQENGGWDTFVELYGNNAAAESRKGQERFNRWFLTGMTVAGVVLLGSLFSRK
UniProt P10415: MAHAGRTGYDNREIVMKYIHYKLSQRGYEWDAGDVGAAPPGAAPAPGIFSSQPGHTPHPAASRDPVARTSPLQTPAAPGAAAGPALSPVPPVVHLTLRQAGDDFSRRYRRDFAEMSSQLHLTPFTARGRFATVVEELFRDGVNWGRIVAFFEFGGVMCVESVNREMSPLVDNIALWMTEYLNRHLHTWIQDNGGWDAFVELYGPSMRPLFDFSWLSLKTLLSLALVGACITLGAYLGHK

[2] = target: T2, Praf2^HA (U2OS) (human) (UniProt O60831); experiment: co-IP; U2OS cells transfected with pcDNA3C3xHA/Praf2 or empty vector, CHAPS extraction buffer, 560 µg extract; anti-HA agarose 2 h at 4°C; immunoblot with anti-HA and anti-Bcl-xL (endogenous Bcl-xL)
T2 sequence: T1 sequence

[3] = target: T3, Arl6IP5^HA (UniProt O75915); experiment: co-IP; HEK 293T cells co-transfected, lysed after 24 h in CHAPS extraction buffer (50 mM Tris/HCl pH 8.0, 150 mM NaCl, 1% CHAPS); anti-HA agarose 2 h at 4°C; immunoblot with anti-HA and anti-FLAG
T3 sequence: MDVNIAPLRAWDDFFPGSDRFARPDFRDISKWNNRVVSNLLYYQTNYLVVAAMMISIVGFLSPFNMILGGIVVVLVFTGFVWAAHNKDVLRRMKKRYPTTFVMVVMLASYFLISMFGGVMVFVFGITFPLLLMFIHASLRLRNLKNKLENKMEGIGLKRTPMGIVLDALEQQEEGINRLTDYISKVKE

Substance	binding [1]	binding [2]	binding [3]
Bcl-xLY101K (FLAG-tagged) (from UniProt Q07817-1 1-233)	binds		
endogenous Bcl-xL (U2OS) (from UniProt Q07817-1 1-233)		binds	
Bcl-xLΔBH4 (FLAG-tagged) (from UniProt Q07817-1 25-233) (domain or fragment)	binds		
^FLAGBcl-2 (from UniProt P10415 1-239)	binds		binds
^FLAGBcl-xL (from UniProt Q07817-1 1-233)	binds		binds
Bcl-xLΔTM (FLAG-tagged) (from UniProt Q07817-1 1-211) (domain or fragment)	no binding		
